Measurements from PubChem BioAssay (NCATS).
The shares of active, inactive and inconclusive entries below differ from those in the screen. For part of these data: Potencies beside an inconclusive call are fits to weak or partial responses and may not hold up. For part of these data: “Side channel” marks fits to a control or component signal instead of the main read-out. The source made the active and inactive calls. Unless noted, the call rests on the fitted dose curve; in most records, active means well fitted curve in the direction sought with a large enough effect; inconclusive means small, poorly fitted or top-dose-only effect, or another doubt; inactive means no such curve, though single readings can be large; an effect the other way counts as inactive or inconclusive.

Tests used:
[1] = Cell Viability - LYMP2-014 (AID 983); further: potency means the concentration at half of the fitted maximal effect; nearly all actives have a fitted effect of over 50% in size
Procedure, shortened: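 2500 cells/well, 5 hr 37 C; cpd 24 hr 37 C, complete medium; CellTiter-Glo 30 min RT, luminescence; ATP loss = toxicity; AC50 via Hill eqn; tetraoctylammonium bromide positive control.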

[2] = Cell Viability - LYMP2-016 (AID 984); settings: LYMP2-016 lymphoblastoid cell viability, qHTS; activity change, negative = cytotoxicity: at 92.2 µM (top of the series);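 further: potency means the concentration at half of the fitted maximal effect; cells exposed to compound for 24 hours at 37 °C; nearly all actives have a fitted effect of over 55% in size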
Procedure, shortened: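 Human lymphoblastoid LYMP2-016 cells, 2500 per well, treated with compounds for 24 h at 37 C. Viability read as intracellular ATP by CellTiter-Glo luminescence after 30 min at room temperature; AC50 from Hill fits of concentration-response.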

[3] = Cell Viability - LYMP2-020 (AID 986); settings: activity change, negative = viability loss: at 92.2 µM (top of the series); further: potency means the concentration at half of the fitted maximal effect; nearly all actives have a fitted effect of over 55% in size
Procedure, shortened: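 qHTS, 2500 cells/well; 5 hr then 24 hr compound exposure, 37 C; CellTiter-Glo luminescence after 30 min RT; ATP decrease taken as cytotoxicity; AC50 via Hill equation; tetraoctylammonium bromide positive control.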

[4] = Cell Viability - LYMP2-026 (AID 989); further: potency means the concentration at half of the fitted maximal effect; nearly all actives have a fitted effect of over 50% in size
Procedure, shortened: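 qHTS cytotoxicity: 2500 cells/well, 5 hr 37 C, compound 24 hr 37 C, CellTiter-Glo 30 min RT, luminescence. Tetraoctylammonium bromide positive control. AC50 via standard Hill fit.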

[5] = qHTS Assay for Identification of Small Molecule Inducers of Hypoxia Response (AID 2120; active means well fitted curve in the direction sought with a large enough effect in the signal ratio, with a control signal flat, not every such curve was filed as active; inconclusive means small, poorly fitted or top-dose-only effect, or a change in a side signal; inactive means no such curve, though single readings can be large or run the other way; the % refers to the signal ratio; further: potency means the concentration at half of the fitted maximal effect); settings: hypoxia response reporter cells, beta-lactamase ratio readout; activation: at 104 µM (top of the series)
Procedure, shortened: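 Read-out: CCF4 FRET emission ratio 460nm/530nm (excitation 405nm), converted to %Activity, with AC50 fitted across a compound titration. ME-180 cells carried an HRE-driven beta-lactamase reporter; compound exposure 17 h, 37 degrees C.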

[6] = target: Bile acid receptor (Homo sapiens) (UniProt Q96RI1); experiment: qHTS assay for small molecule agonists of farnesoid X receptor signaling (AID 588527; calls by dose curve; further: potency means the concentration at half of the fitted maximal effect); settings: HEK293T FXR-UAS-bla, beta-lactamase ratio, 16 h; activation: stronger effect = higher value
Procedure, shortened: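 FXR-UAS-bla HEK293T, 10% dialyzed FBS; cpds up to 92 uM titration, 16 h 37 C; CCF4 dye 2 h RT; fluorescence. Normalized to chenodeoxycholic acid 100 uM (100%) and DMSO (0%); Hill fit gives EC50, efficacy.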

[7] = target: Glucocorticoid receptor (Homo sapiens) (UniProt P04150); experiment: qHTS assay for small molecule agonists of glucocorticoid receptor signaling (AID 588532; active means well fitted curve in the direction sought with a large enough effect in the signal ratio, with a control signal flat; inconclusive means small, poorly fitted or top-dose-only effect, or a change in a side signal; inactive means no such curve, though single readings can be large or run the other way; the % refers to the signal ratio; further: potency means the concentration at half of the fitted maximal effect); settings: HeLa MMTV-bla, beta-lactamase ratio, agonist, 18 h; activation: stronger effect = higher value, percent of dexamethasone control, DMSO zero
Procedure, shortened: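 Stimulation of a glucocorticoid response element-driven beta-lactamase gene was measured in HeLa cells. Responses were scaled between DMSO basal and 0.1 uM dexamethasone, then fitted for half-maximal stimulation.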

[8] = target: Glucocorticoid receptor (Homo sapiens) (UniProt P04150); experiment: qHTS assay for small molecule antagonists of glucocorticoid receptor signaling (AID 588533; active means well fitted inhibition curve with a large enough effect in the signal ratio, with a control signal flat, not every such curve was filed as active; inconclusive means small, poorly fitted or top-dose-only effect, or effect the other way, or a change in a side signal; the % refers to the signal ratio;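 further: cells stimulated with 2 nM dexamethasone as agonist; potency means the concentration at half of the fitted maximal effect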); settings: HeLa MMTV-bla, GRE beta-lactamase ratio, antagonist mode, 18 h; activity change, negative = inhibition: at 76.8 µM (top of the series)
[9] = target: Peroxisome proliferator-activated receptor gamma (Homo sapiens) (UniProt P37231); experiment: qHTS assay for small molecule agonists of peroxisome proliferator-activated receptor gamma signaling (AID 588536; active means well fitted curve in the direction sought with a large enough effect in the signal ratio, with a control signal flat, not every such curve was filed as active; inconclusive means small, poorly fitted or top-dose-only effect, or effect the other way, or a change in a side signal; inactive means no such curve, though single readings can be large or run the other way; the % refers to the signal ratio; further: potency means the concentration at half of the fitted maximal effect); settings: HEK293 PPARg-UAS-bla, beta-lactamase ratio, 16 h; activation: at 76.7 µM (top of the series), percent of rosiglitazone response, DMSO as zero
Procedure, shortened: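 Compound treatment: 16 h, 37 C, HEK293 GeneBLAzer cells. Detection: CCF4, 2 h RT. Values: Hill-fit EC50, efficacy as % of 2 uM rosiglitazone.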

[10] = target: Peroxisome proliferator-activated receptor gamma (Homo sapiens) (UniProt P37231); experiment: qHTS assay for small molecule antagonists of peroxisome proliferator-activated receptor gamma signaling (AID 588537; active means well fitted inhibition curve with a large enough effect in the signal ratio, with a control signal flat, not every such curve was filed as active; inconclusive means small, poorly fitted or top-dose-only effect, or effect the other way, or a change in a side signal; the % refers to the signal ratio;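 further: reporter cells co-stimulated with 50 nM rosiglitazone agonist during compound treatment; % of control where 0% means no effect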); settings: HEK293 PPARg-UAS-bla, beta-lactamase ratio, antagonist mode; activity, negative = inhibition: at 76.8 µM (top of the series)
Procedure, shortened: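 HEK293 cells, PPAR-gamma-UAS-bla, 3000/well. Pre-incubation 6-6.5 h, 37 C. Compound titration with rosiglitazone 50 nM final, 16 h. CCF4 dye, 2 h RT, dual-emission fluorescence.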

[11] = target: Retinoic acid receptor RXR-alpha (Homo sapiens) (UniProt P19793); experiment: qHTS assay for small molecule agonists of retinoid X receptor alpha signaling (AID 588544; calls by dose curve;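 further: 0% = DMSO basal wells and 100% = reference agonist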); settings: HEK293T RXRa-UAS-bla, beta-lactamase reporter, 18 h; activation: at 76.7 µM (top of the series) unless noted
[12] = qHTS assay for small molecule agonists of the antioxidant response element (ARE) signaling pathway (AID 651741; active means well fitted activation curve with a large enough effect in the signal ratio; inconclusive means small, poorly fitted or top-dose-only effect, or effect the other way, or a change in a side signal; the % refers to the signal ratio; further: potency means the concentration at half of the fitted maximal effect); settings: HepG2 ARE-bla reporter, beta-lactamase FRET ratio, 16 h; activation: at 96 µM (top of the series) unless noted
Procedure, shortened: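 Beta-lactamase reporter expression driven by the antioxidant response element in HepG2 cells was detected by fluorescence with LiveBLAzer B/G FRET substrate (2 h, room temperature) following 16 h compound treatment at 37 C.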

[13] = qHTS assay for small molecule activators of the nuclear factor-kappa B (NF-kB) signaling pathway (AID 651749; active means well fitted activation curve with a large enough effect in the signal ratio; inconclusive means small, poorly fitted or top-dose-only effect, or a change in a side signal; the % refers to the signal ratio; further: potency means the concentration at half of the fitted maximal effect); settings: NF-kB-bla ME-180 cells, beta-lactamase FRET ratio, 16 h; activation: stronger effect = higher value
Procedure, shortened: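 Beta-lactamase reporter expression, controlled by NF-kB response elements in ME-180 cells, was quantified fluorometrically via FRET disruption; cells at 2,000/well had been incubated with 23 nL test compound for 16 hr.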

[14] = qHTS assay for small molecule disruptors of the mitochondrial membrane potential - 1 hr assay (AID 651754; calls by dose curve; further: potency means the concentration at half of the fitted maximal effect; nearly all actives have a fitted effect of over 35% in size); settings: ratio change, negative = depolarisation: at 92.2 µM (top of the series)
Procedure, shortened: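 Read-out: dye fluorescence at 490 nm ex/535 nm em (monomers) and 540 nm ex/590 nm em (aggregates) in HepG2 cells. Compound exposure 1 hr at 37C, followed by 30 min dye loading.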

[15] = qHTS assay for small molecule disruptors of the mitochondrial membrane potential - 5 hr assay (AID 651755; calls by dose curve; further: potency means the concentration at half of the fitted maximal effect; nearly all actives have a fitted effect of over 40% in size); settings: JC-1-type ratio dye; ratio change, negative = disruption: at 92.2 µM (top of the series)
Procedure, shortened: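 Seed HepG2 overnight, add compound, incubate 5 hr at 37C and 5% CO2, stain 30 min with Mito-MPS, then measure monomer (490/535 nm) and aggregate (540/590 nm) fluorescence.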

[16] = target: Tumor necrosis factor (Homo sapiens) (UniProt P01375); experiment: qHTS assay to identify small molecules that stimulate Tumor Necrosis Factor-alpha (TNF-alpha) secretion (AID 651757; active means well fitted curve in the direction sought with a large enough effect in the signal ratio; inconclusive means small, poorly fitted or top-dose-only effect, or a change in a side signal; inactive means no such curve, though single readings can be large or run the other way; the % refers to the signal ratio; further: 0% is about no effect); settings: Human cells, HTRF 665/615 ratio; activation (TNF-alpha secretion): at 92.2 µM (top of the series)
Procedure, shortened: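 THP-1 cells, 3000/well; compound 17 hrs, 37 C; add cryptate/XL665 anti-TNF-alpha antibody pair; 3 hr RT; TR-FRET (HTRF) read of secreted TNF-alpha. Quantitative HTS format.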

[17] = qHTS assay to identify small molecules that stimulate interleukin-8 (IL-8) secretion (AID 651758; active means well fitted activation curve with a large enough effect in the signal ratio; inconclusive means small, poorly fitted or top-dose-only effect, or effect the other way, or a change in a side signal; the % refers to the signal ratio; further: 0% is about no effect); settings: HTRF ratio (665/615); activation: at 92.2 µM (top of the series)
Procedure, shortened: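 Quantitative HTS in THP-1 monocytic cells at 2000 cells per well, with 16 hrs compound incubation at 37 C. IL-8 in the medium was then quantified by HTRF immunoassay, read after 1-3 hrs at room temperature.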

[18] = qHTS assay for small molecule antagonists of the retinoid-related orphan receptor gamma (ROR-gamma) signaling pathway - cell viability counter screen (AID 720652; active means well fitted curve in the direction sought with a large enough effect in the repeat runs; inconclusive means weak or mixed curves; inactive means no such curve, though single readings can be large; an effect the other way counts as inactive or inconclusive;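 further: potency means the concentration at half of the fitted maximal effect; compound exposure lasted 16 hr before ATP read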)
Procedure, shortened: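 CHO RORE-LUC/TET-ROR line, 1,000 cells/well, 37 C 5% CO2 5 hr; cpd or DMSO + doxycycline induction, 16 hr. CellTiter-Glo, 30 min RT, luminescence = ATP content.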
Tags describe the fitted curve by direction and shape or compound fluorescence and quenching.

UniProt P01375, sequence (P01375 whole entry, looked up): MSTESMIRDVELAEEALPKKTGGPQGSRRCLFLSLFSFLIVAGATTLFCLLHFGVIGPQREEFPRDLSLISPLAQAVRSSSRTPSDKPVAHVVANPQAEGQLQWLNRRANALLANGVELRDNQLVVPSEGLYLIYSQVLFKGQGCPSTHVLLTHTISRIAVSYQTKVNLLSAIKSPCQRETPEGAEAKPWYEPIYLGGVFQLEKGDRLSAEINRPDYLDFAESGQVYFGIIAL
UniProt P19793, sequence (P19793 whole entry, looked up): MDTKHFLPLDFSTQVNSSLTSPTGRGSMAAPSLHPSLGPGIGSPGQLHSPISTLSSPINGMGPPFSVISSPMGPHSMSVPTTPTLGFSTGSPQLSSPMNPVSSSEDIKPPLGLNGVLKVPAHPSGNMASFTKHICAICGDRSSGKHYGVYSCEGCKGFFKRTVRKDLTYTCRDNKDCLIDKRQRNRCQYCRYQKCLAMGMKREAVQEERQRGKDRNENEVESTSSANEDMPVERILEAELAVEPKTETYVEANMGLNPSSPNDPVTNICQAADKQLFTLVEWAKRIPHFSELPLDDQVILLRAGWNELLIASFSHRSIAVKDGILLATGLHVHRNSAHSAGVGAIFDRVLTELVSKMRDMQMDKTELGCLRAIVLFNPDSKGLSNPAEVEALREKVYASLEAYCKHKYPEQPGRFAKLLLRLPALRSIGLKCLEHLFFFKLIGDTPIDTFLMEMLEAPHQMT

Cc1cc(Nc2ccc(O)cc2)ccc1N
active: Potency [1] 50.1 µM | Potency [2] 50.1 µM | Potency [3] 39.8 µM | Potency [4] 50.1 µM
inconclusive: Potency [5] 39.8 µM [side channel, falling, partial curve] | Potency [6] 31.6 µM [activator, single point] | Potency [7] 4.47 µM [side channel, falling, full curve, poor fit] | Potency [8] 79.4 µM [inhibitor, single point] | Potency [9] 31.6 µM [side channel, falling, partial curve] | activity, negative = inhibition [10] -21% | Potency [12] 66.8 µM [activator, single point] | Potency [13] 31.6 µM [side channel, falling, partial curve] | Potency [14] 42.2 µM [inhibitor, partial curve] | Potency [15] 42.2 µM [inhibitor, partial curve] | activation (TNF-alpha secretion) [16] 0.71% | activation [17] -2.59% | Potency [18] 42.2 µM [cytotoxic, partial curve, poor fit]
inactive: Potency [11]
